# Reference: the supplement of paper PMC8728848
# The other results are listed elsewhere or left out.
# B1: Neuropilin-1 (Homo sapiens), O14786 (protein)
# chain: FKCMEALGMESGEIHSDQITASSQYSTNWSAERSRLNYPENGWTPGEDSYREWIQVDLGLLRFVTAVGTQGAISKETKKKYYVKTYKIDVSSNGEDWITIKEGNKPVLFQGNTNPTDVVVAVFPKPLITRFVRIKPATWETGISMRFEVYGCKITDYPCSGMLGMVSGLISDSQITSSNQGDRNWMPENIRLVTSRSGWALPPAPHSYINEWLQIDLGEEKIVRGIIIQGGKHRENKVFMRKFKIGYSNNGSDWKMIMDDSKRKAKSFEGNNNYDTPELRTFPALSTRFIRIYPERATHGGLGLRMELLGCEVE
# Experiments:
# Test in all cases: glycan array binding signal (z-score within array); higher = stronger binding
# Conditions in all cases: glycan notation: IUPAC condensed, linker removed
# Fuc(a1-2)Gal = target: Fuc(a1-2)Gal
# Method in brief: (§1)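 Glycan array binding is given as a within-array Z-score, which can be read as non-binding when negative. The arrays, 3228 of them, came from the Consortium for Functional Glycomics database and were retained only where the protein sequence was available. Z-scores were averaged across arrays of the same protein sequence at different concentrations or buffers and across linkers.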
# Fuc(a1-2)Gal(b1-3)GalNAc = target: Fuc(a1-2)Gal(b1-3)GalNAc
# Method in brief: as §1
# [1] = target: Fuc(a1-2)Gal(b1-3)GalNAc(b1-3)Gal
# Method in brief: as §1
# [2] = target: Fuc(a1-2)Gal(b1-3)GalNAc(b1-3)Gal(a1-4)Gal(b1-4)Glc
# Method in brief: as §1
# [3] = target: Fuc(a1-2)Gal(b1-3)GalNAc(b1-4)[Neu5Ac(a2-3)]Gal(b1-4)Glc
# Method in brief: as §1
# Fuc(a1-2)Gal(b1-3)GlcNAc = target: Fuc(a1-2)Gal(b1-3)GlcNAc
# Method in brief: as §1
# [4] = target: Fuc(a1-2)Gal(b1-3)GlcNAc(b1-2)Man(a1-3)[Fuc(a1-2)Gal(b1-3)GlcNAc(b1-2)Man(a1-6)]Man(b1-4)GlcNAc(b1-4)GlcNAc
# Method in brief: as §1
# [5] = target: Fuc(a1-2)Gal(b1-3)GlcNAc(b1-3)Gal(b1-4)Glc
# Method in brief: as §1
# [6] = target: Fuc(a1-2)Gal(b1-3)GlcNAc(b1-3)[Gal(b1-4)[Fuc(a1-3)]GlcNAc(b1-6)]Gal(b1-4)Glc
# Method in brief: as §1
# [7] = target: Fuc(a1-2)Gal(b1-3)[Fuc(a1-4)]GlcNAc
# Method in brief: as §1
# [8] = target: Fuc(a1-2)Gal(b1-3)[Fuc(a1-4)]GlcNAc(b1-2)Man(a1-3)[Fuc(a1-2)Gal(b1-3)[Fuc(a1-4)]GlcNAc(b1-2)Man(a1-6)]Man(b1-4)GlcNAc(b1-4)GlcNAc
# Method in brief: as §1
# Fuc(a1-2)Gal(b1-4)Glc = target: Fuc(a1-2)Gal(b1-4)Glc
# Method in brief: as §1
# Fuc(a1-2)Gal(b1-4)Glc6S = target: Fuc(a1-2)Gal(b1-4)Glc6S
# Method in brief: as §1
# Fuc(a1-2)Gal(b1-4)GlcNAc = target: Fuc(a1-2)Gal(b1-4)GlcNAc
# Method in brief: as §1
# [9] = target: Fuc(a1-2)Gal(b1-4)GlcNAc(b1-2)Man(a1-3)[Fuc(a1-2)Gal(b1-4)GlcNAc(b1-2)Man(a1-6)]Man(b1-4)GlcNAc(b1-4)GlcNAc
# Method in brief: as §1
# [10] = target: Fuc(a1-2)Gal(b1-4)GlcNAc(b1-3)Gal(b1-4)GlcNAc
# Method in brief: as §1
# [11] = target: Fuc(a1-2)Gal(b1-4)GlcNAc(b1-3)Gal(b1-4)GlcNAc(b1-3)Gal(b1-4)GlcNAc
# Method in brief: as §1
# [12] = target: Fuc(a1-2)Gal(b1-4)GlcNAc6S
# Method in brief: as §1
# [13] = target: Fuc(a1-2)Gal(b1-4)[Fuc(a1-3)]GlcNAc
# Method in brief: as §1
# [14] = target: Fuc(a1-2)Gal(b1-4)[Fuc(a1-3)]GlcNAc(b1-2)Man(a1-3)[Fuc(a1-2)Gal(b1-4)[Fuc(a1-3)]GlcNAc(b1-2)Man(a1-6)]Man(b1-4)GlcNAc(b1-4)GlcNAc
# Method in brief: as §1
# [15] = target: Fuc(a1-2)Gal(b1-4)[Fuc(a1-3)]GlcNAc(b1-3)Gal(b1-4)[Fuc(a1-3)]GlcNAc
# Method in brief: as §1
# [16] = target: Fuc(a1-2)Gal(b1-4)[Fuc(a1-3)]GlcNAc(b1-3)Gal(b1-4)[Fuc(a1-3)]GlcNAc(b1-3)Gal(b1-4)[Fuc(a1-3)]GlcNAc
# Method in brief: as §1
# Fuc(a1-2)Gal6S(b1-4)Glc = target: Fuc(a1-2)Gal6S(b1-4)Glc
# Method in brief: as §1
# [17] = target: Fuc(a1-2)Gal6S(b1-4)Glc6S
# Method in brief: as §1
# [18] = target: Fuc(a1-2)Gal6S(b1-4)GlcNAc
# Method in brief: as §1
# Fuc(a1-2)[Gal(a1-3)]Gal = target: Fuc(a1-2)[Gal(a1-3)]Gal
# Method in brief: as §1
# [19] = target: Fuc(a1-2)[Gal(a1-3)]Gal(b1-3)GlcNAc
# Method in brief: as §1
# [20] = target: Fuc(a1-2)[Gal(a1-3)]Gal(b1-3)GlcNAc(b1-2)Man(a1-3)[Fuc(a1-2)[Gal(a1-3)]Gal(b1-3)GlcNAc(b1-2)Man(a1-6)]Man(b1-4)GlcNAc(b1-4)GlcNAc
# Method in brief: as §1
# [21] = target: Fuc(a1-2)[Gal(a1-3)]Gal(b1-4)Glc
# Method in brief: as §1
# [22] = target: Fuc(a1-2)[Gal(a1-3)]Gal(b1-4)GlcNAc
# Method in brief: as §1
binder,measurement,setting,value
B1,glycan array binding signal (z-score),Fuc(a1-2)Gal,-0.154
same,glycan array binding signal (z-score),Fuc(a1-2)Gal(b1-3)GalNAc,-0.211
same,glycan array binding signal (z-score),[1],-0.04
same,glycan array binding signal (z-score),[2],-0.235
same,glycan array binding signal (z-score),[3],-0.268
same,glycan array binding signal (z-score),Fuc(a1-2)Gal(b1-3)GlcNAc,-0.247
same,glycan array binding signal (z-score),[4],1.14
same,glycan array binding signal (z-score),[5],-0.252
same,glycan array binding signal (z-score),[6],-0.204
same,glycan array binding signal (z-score),[7],-0.192
same,glycan array binding signal (z-score),[8],1.6
same,glycan array binding signal (z-score),Fuc(a1-2)Gal(b1-4)Glc,-0.304
same,glycan array binding signal (z-score),Fuc(a1-2)Gal(b1-4)Glc6S,-0.18
same,glycan array binding signal (z-score),Fuc(a1-2)Gal(b1-4)GlcNAc,-0.196
same,glycan array binding signal (z-score),[9],5.83
same,glycan array binding signal (z-score),[10],-0.117
same,glycan array binding signal (z-score),[11],-0.244
same,glycan array binding signal (z-score),[12],-0.206
same,glycan array binding signal (z-score),[13],0.606
same,glycan array binding signal (z-score),[14],4.73
same,glycan array binding signal (z-score),[15],-0.208
same,glycan array binding signal (z-score),[16],-0.211
same,glycan array binding signal (z-score),Fuc(a1-2)Gal6S(b1-4)Glc,-0.089
same,glycan array binding signal (z-score),[17],0.017
same,glycan array binding signal (z-score),[18],-0.261
same,glycan array binding signal (z-score),Fuc(a1-2)[Gal(a1-3)]Gal,-0.293
same,glycan array binding signal (z-score),[19],-0.085
same,glycan array binding signal (z-score),[20],1.18
same,glycan array binding signal (z-score),[21],-0.162
same,glycan array binding signal (z-score),[22],-0.249
